Assay results from PMC10191332 (2023).

Target: recombinant His-gH/gL (HCMV), purified (HCMV, biotinylated (sulfo-LC-LC-biotin kit) | biotinylated (sulfo-LC-LC-biotin kit))
Test: BLI

B1: EphA2 extracellular domain ([…]), purified (domain or fragment)
chain: not shown
B1 gave a koff of 0.00146 s⁻¹.
